In the supplement of paper PMC2702839 one finds phenotypic hit data, which are given here for 44 compounds.

Each structure is given as a SMILES string. Counter-ions that a name gives are not always drawn. The list shows a part of the results.

This assay deals with Schistosoma mansoni schistosomula. The experiment in a line: phenotypic hit in primary schistosomula screen (any phenotype vs DMSO control) (binary (1 = hit, 0 = no phenotype)); higher = active (phenotype induced). Particulars: 1 µM; time (d): 7.
For the compound `CO[C@]12C[C@@H](COC(=O)c3cncc(Br)c3)CN(C)[C@@H]1Cc1cn(C)c3cccc2c13` [nicergoline], the phenotypic hit was inactive: 0.
To `C/C=C(/C)C(=O)O[C@H]1CC[C@@]2(C)[C@@H]3CC[C@H]4[C@]5(O)C[C@H](O)[C@@]6(O)[C@@H](CN7C[C@@H](C)CC[C@H]7[C@@]6(C)O)[C@]5(O)C[C@]42O[C@]13O` [veratrine] belongs inactive: 0; to `O=C(O)COc1cc(Cl)c(Cl)cc1Cl` [2,4,5-trichlorophenoxyacetic acid], inactive: 0; to `CN(C)C(=S)SSC(=S)N(C)C` [thiram], active: 1.
To `O=C1NC(=O)C(=O)C(=O)N1` [alloxan] belongs inactive: 0; to `CC(C)(C)NCC(O)c1ccccc1Cl` (centres undefined) [tulobuterol], inactive: 0.
`Cc1ccc(O)cc1.Cc1cccc(O)c1.Cc1ccccc1O` [cresol]: the phenotypic hit was inactive: 0.
For `CC[C@H]1[C@@H]2C[C@H]3[C@@H]4N(C)c5ccccc5[C@]45C[C@@H]([C@@H]2[C@H]5O)N3[C@@H]1O` [ajmaline], the phenotypic hit was inactive: 0.
To `C[C@@H]1CC[C@H]2[C@@H](C)C(=O)O[C@@H]3O[C@@]4(C)CC[C@@H]1[C@]32OO4` [artemisinin] belongs inactive: 0; to `CC[C@H]1CN2CCc3cc(OC)c(OC)cc3[C@@H]2C[C@@H]1C[C@H]1NCCc2cc(OC)c(OC)cc21` [emetine], inactive: 0.
To `CNC(C)C(O)c1ccccc1` (centres undefined) [racephedrine hydrochloride] belongs inactive: 0.
`COc1ccc(C(=O)O[C@H]2CC[C@@]3(C)[C@@H]4CC[C@H]5[C@]6(O)C[C@H](O)[C@@]7(O)[C@@H](CN8C[C@@H](C)CC[C@H]8[C@@]7(C)O)[C@]6(O)C[C@@]53O[C@]24O)cc1OC` [veratridine]: the phenotypic hit was inactive: 0.
Take `CO[C@H]1[C@H](O)[C@H](O[C@H]2CC[C@@]3(C)[C@H](CC[C@@H]4[C@@H]3CC[C@]3(C)[C@@H](C5=CC(=O)OC5)CC[C@]43O)C2)O[C@@H](C)[C@@H]1O` [neriifolin]: the phenotypic hit is inactive: 0.
To `COc1cc([C@@H]2c3cc4c(cc3[C@H](O)[C@H]3COC(=O)[C@H]23)OCO4)cc(OC)c1OC` [podofilox] belongs active: 1; to `CNC(C)[C@H](O)c1ccccc1` (some centres undefined) [ephedrine (1r,2s) hydrochloride], inactive: 0; to `COc1ccc(C[C@H]2NC[C@H](O)[C@H]2OC(C)=O)cc1` [anisomycin], active: 1.
To `CN1[C@@H]2C[C@@H]3C[C@H]1[C@H](O)[C@H]2O3` [scopoline] belongs inactive: 0; to `CC(C)N(C(=O)SCC(Cl)=C(Cl)Cl)C(C)C` [triallate], inactive: 0.
The result for `COc1ccc2c(c1)[nH]c1c(C)nccc12` [harmine] reads inactive: 0; that for `CCc1cccc(C)c1N(C(=O)CCl)C(C)COC` (centres undefined) [metolachlor], active: 1.
For the compound `O=C1c2ccccc2C(=O)c2ccccc21` [anthraquinone], the phenotypic hit was inactive: 0.
Consider `Oc1c(Cl)c(Cl)c(Cl)c(Cl)c1Cl` [pentachlorophenol], for which the phenotypic hit was inactive: 0.
The result for `CNC(=O)Oc1ccc2c(c1)[C@]1(C)CCN(C)[C@@H]1N2C` [(-)-Physostigmine] reads active: 1.
Take `CN1[C@H]2C[C@H](OC(=O)[C@H](CO)c3ccccc3)C[C@@H]1[C@@H](O)C2` [anisodamine]: the phenotypic hit is inactive: 0.
Regarding `CN(C)C(=O)Oc1cccc([N+](C)(C)C)c1` [Neostigmine bromide], the phenotypic hit is active: 1.
To `COc1ccc(C(CN(C)C)C2(O)CCCCC2)cc1` (centres undefined) [venlafaxine hydrochloride] belongs inactive: 0.
`C[C@H](N)[C@H](O)c1ccccc1` [L(-)-Norephedrine]: the phenotypic hit was inactive: 0.
The result for `COc1cc2c(cc1OC)-c1c(oc3c4c(ccc3c1=O)OC(C(C)C)C4)CO2` (centres undefined) [dehydrodihydrorotenone] reads inactive: 0; that for `CN1CCc2cc3c(cc2C1O)OCO3` (centres undefined) [hydrastinine hydrochloride], inactive: 0; that for `CC1(C)C2CC(=O)[C@]3(C)C(CC[C@@]4(C)[C@H](c5ccoc5)OC(=O)[C@H]5O[C@]543)[C@@]2(C)C(=O)C[C@H]1O` (some centres undefined) [1,7-dideacetoxy-1,7-dioxo-3-deacetylkhivorin], inactive: 0.
To `COc1ccc(C(=O)O)cc1OC` [veratric acid] belongs inactive: 0.
To `CC(C)C[C@H]1C(=O)N2CCC[C@H]2[C@]2(O)O[C@](NC(=O)[C@@H]3C=C4c5cccc6[nH]c(Br)c(c56)C[C@H]4N(C)C3)(C(C)C)C(=O)N12` [bromocriptine mesylate] belongs inactive: 0.
For the compound `CN1[C@@H]2CC[C@H]1C[C@@H](OC(=O)C(CO)c1ccccc1)C2` (some centres undefined) [Atropine sulfate], the phenotypic hit was inactive: 0.
To `CCC(C)C(OC(C)=O)C(=O)OC1C(O)C2C3(C)C=CC(=O)C(C)(C)C3CC(OC(=O)C(O)C(C)C)C2(C)C23OC2CC(c2ccoc2)C13C` (centres undefined) [heudelottin c] belongs inactive: 0; to `CC(=O)OC1CC(OC(C)=O)C2(C)C(CC(OC(C)=O)C3(C)C2CCC2(C)C(c4ccoc4)CC4OC423)C1(C)C` (centres undefined) [havanensin triacetate], inactive: 0; to `O=C(O)CCCOc1ccc(Cl)cc1Cl` [2,4-dichlorophenoxybutyric acid], inactive: 0.
The result for `CN1[C@@H]2CC[C@H]1C[C@@H](OC(c1ccccc1)c1ccccc1N)C2` (some centres undefined) [Aminobenztropine] reads inactive: 0; that for `CN1Cc2c(ccc3c2OCO3)C2C(O)Cc3cc4c(cc3C21)OCO4` (stereo not drawn) [chelidonine (+)], inactive: 0; that for `C[C@]12CCC(=O)C(O)=C1CC[C@@H]1[C@@H]2CC[C@]2(C)C(=O)CC[C@@H]12` [formestane], inactive: 0.
The result for `CCOP(=S)(OCC)Oc1cc(C)nc(C(C)C)n1` [diazinon] reads inactive: 0; that for `CNC(C)(C)Cc1ccccc1` [mephentermine sulfate], inactive: 0.
Take `CNC(Cc1c[nH]c2ccccc12)C(=O)O` (centres undefined) [abrine (l)]: the phenotypic hit was inactive: 0.
For `COC1=C[C@]23CCCN2CCc2cc4c(cc2[C@@H]3[C@@H]1O)OCO4` [cephalotaxine], the phenotypic hit was inactive: 0.
As for `COc1cc(C(=O)O)cc(OC)c1OC` [eudesmic acid], the phenotypic hit is inactive: 0.
